Data on 31 variants can be found in the GPR68 mutational scans of Howard et al. (2025).

The least precise scores are not listed. The source holds two more conditions with little spread; they are left out. Read del as a deletion of the residues named and ins as an insertion between two positions. For part of these data: The data file names ogerin without a concentration.

The labels stand for the following.
B1: GPR68, Q15743 (parent)
chain: MGNITADNSSMSCTIDHTIHQTLAPVVYVTVLVVGFPANCLSLYFGYLQIKARNELGVYLCNLTVADLFYICSLPFWLQYVLQHDNWSHGDLSCQVCGILLYENIYISVGFLCCISVDRYLAVAHPFRFHQFRTLKAAVGVSVVIWAKELLTSIYFLMHEEVIEDENQHRVCFEHYPIQAWQRAINYYRFLVGFLFPICLLLASYQGILRAVRRSHGTQKSRKDQIQRLVLSTVVIFLACFLPYHVLLLVRSVWEASCDFAKGVFNAYHFSLLLTSFNCVADPVLYCFVSETTHRDLARLRGACLAFLTCSRTGRAREAYPLGAPEASGKSGAQGEEPELLTKLHPAFQTPNSPGSGGFPTGRLA

In series [1] the parent is B1. As to the kind of experiment: cAMP reporter score (Enrich2 score, wild type = 0); higher = more signal; HEK293T, FACS bins.
Series [2] covers variants of B1. As to the kind of experiment: surface expression score (Enrich2 score, wild type = 0); higher = more signal; HEK293T, FACS bins.

As for T14I, the cAMP reporter score in series [1] (pH 5.5) is 1.23; in series [1] (pH 6), -0.2; in series [1] (pH 6, modulator: ogerin) it was 1.21; in series [1] (pH 6.5, modulator: ogerin), 0.14. Besides, in series [2], the surface expression score came to 1.36.

For T14S, the cAMP reporter score was 1.01 in series [1] (pH 5.5); 1.08 in series [1] (pH 6); 1.1 in series [1] (pH 6, modulator: ogerin); 1.98 in series [1] (pH 6.5, modulator: ogerin). The surface expression score in series [2] was 0.778.

Turning to T14L, the cAMP reporter score was 0.249 in series [1] (pH 5.5); -0.755 in series [1] (pH 6); 0.315 in series [1] (pH 6, modulator: ogerin); -0.543 in series [1] (pH 6.5, modulator: ogerin). In addition, the surface expression score in series [2] is 0.763.

In the case of T14W, the cAMP reporter score in series [1] (pH 5.5) is 0.045; in series [1] (pH 6) it was -0.418; in series [1] (pH 6, modulator: ogerin), 0.068; in series [1] (pH 6.5, modulator: ogerin), -0.304. For the same variant, in series [2], the surface expression score was 0.534.

On to T14Q, for which the cAMP reporter score in series [1] (pH 5.5) was 0.019; in series [1] (pH 6), -0.643; in series [1] (pH 6, modulator: ogerin) it was 0.432; in series [1] (pH 6.5, modulator: ogerin), 0.374. In series [2], the surface expression score was -0.271.

As for T14A, the cAMP reporter score was found to be 1.07 in series [1] (pH 5.5); 0.926 in series [1] (pH 6); 1.18 in series [1] (pH 6, modulator: ogerin); 0.853 in series [1] (pH 6.5, modulator: ogerin). For the same variant, the surface expression score in series [2] was 1.02.

Consider T14H, for which the cAMP reporter score in series [1] (pH 5.5) was -0.172; in series [1] (pH 6) it was -0.246; in series [1] (pH 6, modulator: ogerin) it was 0.047; in series [1] (pH 6.5, modulator: ogerin) it was -0.549. In addition, the surface expression score in series [2] stood at 0.6.

T14F: the cAMP reporter score in series [1] (pH 5.5) is 0.362; in series [1] (pH 6), -0.512; in series [1] (pH 6, modulator: ogerin) it was 0.366; in series [1] (pH 6.5, modulator: ogerin), -0.395. In addition, the surface expression score in series [2] turned out to be 0.998.

For T14G, the cAMP reporter score was 1.05 in series [1] (pH 5.5); 0.108 in series [1] (pH 6); 1.07 in series [1] (pH 6, modulator: ogerin); -0.043 in series [1] (pH 6.5, modulator: ogerin). For the same variant, the surface expression score in series [2] is 0.879.

Consider T14K, for which the cAMP reporter score in series [1] (pH 5.5) is 0.759; in series [1] (pH 6), 0.261; in series [1] (pH 6, modulator: ogerin), 0.349; in series [1] (pH 6.5, modulator: ogerin), -0.012. In series [2], the surface expression score stood at 1.18.

In the case of T14E, the cAMP reporter score in series [1] (pH 5.5) is 0.375; in series [1] (pH 6) it was 0.39; in series [1] (pH 6, modulator: ogerin), -0.003; in series [1] (pH 6.5, modulator: ogerin), -0.006. Also, in series [2], the surface expression score was -0.719.

For the variant C13_T14insGSG, the cAMP reporter score is -0.77 in series [1] (pH 5.5); -1.17 in series [1] (pH 6); -1.39 in series [1] (pH 6, modulator: ogerin); -0.271 in series [1] (pH 6.5, modulator: ogerin). Also, in series [2], the surface expression score is -0.72.

Turning to C13G, the cAMP reporter score was -1.07 in series [1] (pH 5.5); -1.62 in series [1] (pH 6, modulator: ogerin); -0.063 in series [1] (pH 6.5, modulator: ogerin). In series [2], the surface expression score is -1.3.

Take C13F: the cAMP reporter score in series [1] (pH 5.5) was -1.87; in series [1] (pH 6), -0.513; in series [1] (pH 6, modulator: ogerin), -2.19. Also, the surface expression score in series [2] is -2.28.

Regarding C13Y, the cAMP reporter score in series [1] (pH 5.5) is -1.18; in series [1] (pH 6), -0.363; in series [1] (pH 6, modulator: ogerin), -1.28; in series [1] (pH 6.5, modulator: ogerin), -0.888. In addition, the surface expression score in series [2] was -0.876.

As to C13Q, the cAMP reporter score is -0.883 in series [1] (pH 5.5); -0.087 in series [1] (pH 6); -1.22 in series [1] (pH 6.5, modulator: ogerin). Also, the surface expression score in series [2] is -2.66.

With C13T, the cAMP reporter score in series [1] (pH 5.5) was -1.2; in series [1] (pH 6) it was -0.638; in series [1] (pH 6, modulator: ogerin), -1.22; in series [1] (pH 6.5, modulator: ogerin) it was -0.566. Besides, the surface expression score in series [2] is -1.52.

Consider C13R, for which the cAMP reporter score is -1.22 in series [1] (pH 5.5); -1 in series [1] (pH 6); -1.56 in series [1] (pH 6, modulator: ogerin); -1.11 in series [1] (pH 6.5, modulator: ogerin). Further, the surface expression score in series [2] was -1.35.

Take C13P: the cAMP reporter score in series [1] (pH 5.5) was -1.08; in series [1] (pH 6) it was -0.971; in series [1] (pH 6, modulator: ogerin), -0.891; in series [1] (pH 6.5, modulator: ogerin) it was -1.22. Further, the surface expression score in series [2] was -1.93.

With C13H, the cAMP reporter score in series [1] (pH 5.5) is -0.849; in series [1] (pH 6), -1.17; in series [1] (pH 6, modulator: ogerin), -1.47; in series [1] (pH 6.5, modulator: ogerin) it was -0.61. In addition, the surface expression score in series [2] is -0.923.

In the case of C13K, the cAMP reporter score in series [1] (pH 5.5) is -1.83; in series [1] (pH 6) it was -0.859; in series [1] (pH 6, modulator: ogerin) it was -1.61; in series [1] (pH 6.5, modulator: ogerin), -0.148. Also, the surface expression score in series [2] was -1.16.

As to C13M, the cAMP reporter score was -1.34 in series [1] (pH 5.5); -1.58 in series [1] (pH 6); -1.07 in series [1] (pH 6, modulator: ogerin); -1.48 in series [1] (pH 6.5, modulator: ogerin). Besides, in series [2], the surface expression score is -1.36.

Consider C13A, for which the cAMP reporter score in series [1] (pH 5.5) was -1.58; in series [1] (pH 6), -0.848; in series [1] (pH 6, modulator: ogerin), -1.83; in series [1] (pH 6.5, modulator: ogerin), -0.541. Further, in series [2], the surface expression score is -1.47.

Regarding C13D, the cAMP reporter score in series [1] (pH 5.5) was -0.904; in series [1] (pH 6) it was -1.19; in series [1] (pH 6, modulator: ogerin), -1.1; in series [1] (pH 6.5, modulator: ogerin), -0.869. Moreover, the surface expression score in series [2] was -1.42.

As to C13W, the cAMP reporter score in series [1] (pH 5.5) is -0.78; in series [1] (pH 6.5, modulator: ogerin), -0.081. Further, in series [2], the surface expression score is -1.24.

In the case of C13I, the cAMP reporter score is -0.441 in series [1] (pH 5.5); -1.33 in series [1] (pH 6); -1.81 in series [1] (pH 6, modulator: ogerin); -0.897 in series [1] (pH 6.5, modulator: ogerin). Besides, the surface expression score in series [2] is -2.09.

Take C13L: the cAMP reporter score in series [1] (pH 5.5) was -1.07; in series [1] (pH 6), -0.212; in series [1] (pH 6, modulator: ogerin), -0.963; in series [1] (pH 6.5, modulator: ogerin), 0. Also, in series [2], the surface expression score is -1.45.

On to C13E, for which the cAMP reporter score in series [1] (pH 5.5) is -1.24; in series [1] (pH 6) it was 0.522; in series [1] (pH 6, modulator: ogerin) it was -1.32; in series [1] (pH 6.5, modulator: ogerin), -0.789. Further, the surface expression score in series [2] was -1.06.

Consider C13S, for which the cAMP reporter score in series [1] (pH 5.5) was -0.605; in series [1] (pH 6) it was -0.588; in series [1] (pH 6, modulator: ogerin), -1.31; in series [1] (pH 6.5, modulator: ogerin) it was -0.277. Further, the surface expression score in series [2] was -1.

Turning to C13N, the cAMP reporter score in series [1] (pH 5.5) was -0.778; in series [1] (pH 6) it was -0.478; in series [1] (pH 6, modulator: ogerin) it was -0.763; in series [1] (pH 6.5, modulator: ogerin), -0.546. The surface expression score in series [2] is -1.19.

With C13V, the cAMP reporter score in series [1] (pH 5.5) is -0.718; in series [1] (pH 6), -1.22; in series [1] (pH 6, modulator: ogerin) it was -1.7; in series [1] (pH 6.5, modulator: ogerin), -0.452. For the same variant, the surface expression score in series [2] was -1.71.
